Values marked as one replicate rest on one cluster of the flow cell; about a third of the high ones do not repeat.
What follows are sequences tested on ATP (assay: switch fluorescence ratio, 500 uM ATP over buffer (Cy3 cluster intensity, sum of 5 cycles each) (fold (ratio)); higher = stronger signal-on switching upon ATP binding; sequences stand for … in TCGTCGGCAGCGTCAGATGTGTATAAGAGACAGTTTTTTTTTTTTTTTTTTTTTTTTT…TC). Conditions: aptamer strand: ATP DNA aptamer (quencher-CACCTGGGGGAGTATTGCGGAGGAAGG + anchor), 100 nM annealed; ATP concentration: 500 uM; one replicate.
In short: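 Cy3-labelled switching-strand clusters on a modified Illumina MiSeq flow-cell were annealed to 100 nM quencher-labelled ATP aptamer, imaged in selection buffer, then imaged after 15 min with 500 uM ATP at 22 °C. Five buffer/ATP cycles ran, with NaOH stripping and re-annealing between them. The fluorescence ratio is summed target-cycle over summed buffer-cycle Cy3 intensity per cluster, averaged per switch-domain sequence. Clusters outside 100-1000 RFU were excluded.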
For GGCTTTTTG, the switch fluorescence ratio was 0.992.
GGGAAAATAA showed a switch fluorescence ratio of 0.992.
Work on GGGAAAGAAA yielded a switch fluorescence ratio of 0.981.
For GGGAAATCCC, the switch fluorescence ratio was 1.26.
In the case of GGGAAATGAC, the switch fluorescence ratio is reported as 1.06.
In the case of GGGAAGCGAG, the switch fluorescence ratio is reported as 0.95.
Work on GGGACAAGTT yielded a switch fluorescence ratio of 1.03.
With GGGACAATGG the switch fluorescence ratio was 1.03.
GGGACAATTT gave a switch fluorescence ratio of 0.998.
With GGGACACTAG the switch fluorescence ratio was 1.01.
Sequence GGGACATGGA has a switch fluorescence ratio of 1.03.
Sequence GGGACTACGT has a switch fluorescence ratio of 0.978.
Sequence GGGACTTAAA has a switch fluorescence ratio of 1.02.
Work on GGGACTTCAT yielded a switch fluorescence ratio of 1.
In the case of GGGAGACTCT, the switch fluorescence ratio is reported as 1.04.
Sequence GGGAGATTTG has a switch fluorescence ratio of 1.02.
GGGAGCATAG showed a switch fluorescence ratio of 1.09.
In the case of GGGAGCGGTT, the switch fluorescence ratio is reported as 0.929.
GGGAGCGTG showed a switch fluorescence ratio of 0.789.
GGGAGGGGT gave a switch fluorescence ratio of 0.973.
In the case of GGGAGTCCG, the switch fluorescence ratio is reported as 1.01.
GGGAGTCTGC showed a switch fluorescence ratio of 0.952.
With GGGAGTTCGC the switch fluorescence ratio was 0.955.
GGGATACCC showed a switch fluorescence ratio of 0.969.
GGGATAGGTC showed a switch fluorescence ratio of 1.04.
GGGCAACTCG gave a switch fluorescence ratio of 1.01.
Work on GGGCAGACTT yielded a switch fluorescence ratio of 1.02.
GGGCAGATGT was tested, and the switch fluorescence ratio was 1.03.
Sequence GGGCATAATA has a switch fluorescence ratio of 0.961.
For GGGCATATTT, the switch fluorescence ratio was 0.966.
With GGGCATCGT the switch fluorescence ratio was 0.977.
Work on GGGCATGAGA yielded a switch fluorescence ratio of 0.992.
GGGCATGGCC gave a switch fluorescence ratio of 0.982.
GGGCATTACA gave a switch fluorescence ratio of 1.05.
In the case of GGGCCAGCTA, the switch fluorescence ratio is reported as 1.06.
Work on GGGCCAGTCG yielded a switch fluorescence ratio of 1.22.
In the case of GGGCCCACCA, the switch fluorescence ratio is reported as 0.97.
In the case of GGGCCCATAC, the switch fluorescence ratio is reported as 1.01.
For GGGCCCCCAC, the switch fluorescence ratio was 1.01.
GGGCCCGTTT gave a switch fluorescence ratio of 0.933.
In the case of GGGCCGACCC, the switch fluorescence ratio is reported as 1.01.
For GGGCGAACAT, the switch fluorescence ratio was 0.997.
In the case of GGGCGAATTC, the switch fluorescence ratio is reported as 1.01.
GGGCGACTGG was tested, and the switch fluorescence ratio was 0.948.
In the case of GGGCGAGCCC, the switch fluorescence ratio is reported as 1.02.
GGGCGAGGCC gave a switch fluorescence ratio of 1.03.
GGGCGAGTCG showed a switch fluorescence ratio of 0.987.
For GGGCGATTTG, the switch fluorescence ratio was 1.02.
GGGCGCTCCA showed a switch fluorescence ratio of 0.978.
GGGCGGGA showed a switch fluorescence ratio of 1.02.
GGGCGGGCGA was tested, and the switch fluorescence ratio was 1.05.
With GGGCGTCCTA the switch fluorescence ratio was 1.
For GGGCGTGCTA, the switch fluorescence ratio was 1.01.
GGGCGTTGGA gave a switch fluorescence ratio of 1.02.
Sequence GGGCGTTTTA has a switch fluorescence ratio of 1.03.
Sequence GGGCTAGCAA has a switch fluorescence ratio of 1.22.
GGGCTGTCGC gave a switch fluorescence ratio of 1.01.
For GGGCTTACCG, the switch fluorescence ratio was 0.967.
GGGCTTAGAC was tested, and the switch fluorescence ratio was 1.03.
In the case of GGGGAAATAG, the switch fluorescence ratio is reported as 1.01.
Work on GGGGAAGCTA yielded a switch fluorescence ratio of 0.965.
Sequence GGGGACAGCC has a switch fluorescence ratio of 0.954.
For GGGGACTCTC, the switch fluorescence ratio was 0.998.
Work on GGGGAGATAA yielded a switch fluorescence ratio of 0.989.
GGGGAGCTGG showed a switch fluorescence ratio of 0.949.
GGGGAGGTGC gave a switch fluorescence ratio of 1.01.
GGGGATTAT showed a switch fluorescence ratio of 0.986.
For GGGGCAAGAA, the switch fluorescence ratio was 1.17.
GGGGCATCAG showed a switch fluorescence ratio of 1.05.
GGGGCCCCTG gave a switch fluorescence ratio of 1.32.
For GGGGCCTATG, the switch fluorescence ratio was 1.02.
For GGGGCCTTGC, the switch fluorescence ratio was 1.07.
GGGGCGGCCG was tested, and the switch fluorescence ratio was 1.05.
Work on GGGGCGTACA yielded a switch fluorescence ratio of 1.69.
GGGGGAGGC showed a switch fluorescence ratio of 1.03.
Sequence GGGGGATTG has a switch fluorescence ratio of 0.995.
With GGGGGCACAT the switch fluorescence ratio was 0.986.
GGGGGCCCAT gave a switch fluorescence ratio of 1.04.
In the case of GGGGGCCTCT, the switch fluorescence ratio is reported as 1.04.
GGGGGCTAAC showed a switch fluorescence ratio of 0.975.
GGGGGCTATC was tested, and the switch fluorescence ratio was 1.06.
With GGGGGTTA the switch fluorescence ratio was 1.04.
GGGGTAATAC showed a switch fluorescence ratio of 2.51.
In the case of GGGGTACATT, the switch fluorescence ratio is reported as 1.38.
GGGGTAGGA showed a switch fluorescence ratio of 0.974.

From the supplement of paper PMC10126150
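Note: ATP exposure 15 min at 22 °C before imaging.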
